Common to all, as to test: Primary Screen for Target Class Profiling of Small Molecule Inhibitors of Methyltransferases
Test [1] addresses Glycine N-methyltransferase (Homo sapiens) (UniProt Q14749). To be noted: purified enzyme, MTase-Glo SAH luminescence; measured here: GNMT inhibition; at 40 µM; stronger effect = lower value. Summed up: (§1)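 Each enzyme was reacted with SAM and its substrate, with compounds tested once at 40 uM; SAH formed was read by MTase-Glo luminescence.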
For test [2], the target named is Guanidinoacetate N-methyltransferase (Homo sapiens) (UniProt Q14353). To be noted: purified enzyme, MTase-Glo SAH luminescence; measured here: GAMT inhibition; at 40 µM; stronger effect = lower value. The method, boiled down: as §1
In test [3] the target is Histamine N-methyltransferase (Homo sapiens) (UniProt P50135). The settings on record: purified enzyme, MTase-Glo SAH luminescence; measured here: HNMT inhibition; at 40 µM; stronger effect = lower value. The method, boiled down: as §1
In test [4] the target is Nicotinamide N-methyltransferase (Homo sapiens) (UniProt P40261). To be noted: purified enzyme, MTase-Glo SAH luminescence; measured here: NNMT inhibition; at 40 µM; stronger effect = lower value. Summed up: as §1
For test [5], the target named is Phenylethanolamine N-methyltransferase (Homo sapiens) (UniProt P11086). The settings on record: purified enzyme, MTase-Glo SAH luminescence; measured here: PNMT inhibition; at 40 µM; stronger effect = lower value. Summed up: as §1

“And” between values parts separate entries of the source, which are not always exact repeats. Equal values may be shown once. Some of the results follow. These are further read-outs of the screen, such as a control signal, another cell line or another target. No call is given for them.
On the % scale 0 is the no-effect control and ±100 the full control effect.

For the molecule `Fc1ccc([C@@H]2CCNC[C@H]2COc2ccc3c(c2)OCO3)cc1`, the activity change, negative = inhibition in test [1] was 4.76%; in test [2], 12.4% and 7.08%; in test [3] it was 10.8%; in test [4], -10.2% and -16.2%; in test [5], 1.76% and 2.74%.
Take `NC(=O)C1CCN(C(=O)CCc2nnc3n(CCc4ccccc4)c(=O)c4ccccc4n23)CC1`: the activity change, negative = inhibition was -6.84% in test [1]; 1.62% in test [2]; 2.81% in test [3]; 7.85% in test [4]; -3.39% in test [5].
In the same order, the values of `CCOC(=O)c1cc2n(n1)CC(C)(C(=O)NC1CCCC1)N(c1cc(C)ccc1C)C2=O` (centres undefined) are 4.44%, 5.03%, -5.37%, 3.79% and 4.35%.
On to `Cc1ccc(C)c(N2CCN(CCCNC(=O)CCc3nnc4n(CC(C)C)c(=O)c5ccccc5n34)CC2)c1`, for which the activity change, negative = inhibition in test [1] was -6.66%; in test [2], 3.62%; in test [3], -5.7%; in test [4], -3.28%; in test [5] it was -1.45%.
For `CC(=O)c1ccc(Nc2nc3c(S(=O)(=O)c4ccc(C)c(C)c4)nnn3c3ccc(Cl)cc23)cc1`, the activity change, negative = inhibition is -6.88% in test [1]; 3.24% in test [2]; 1.72% in test [3]; -0.727% in test [4]; -4.97% in test [5].
In the same order, the values of `CC1CC(C)CN(S(=O)(=O)c2ccc3c(c2)oc(=O)n3CC(=O)NC2CCCCC2)C1` (centres undefined) are -5.63%, 0%, -5.19%, -15.3% and -10.1%.
On the same counts, the results for `O=C(CSc1nnc2n(Cc3ccccc3)c(=O)c3ccccc3n12)Nc1ccc(Cl)cc1` are -2.97%, 3.41%, -1.25%, -0.953% and -1.87%.
As to `CN1C(=O)c2cc(C(=O)NCCc3cccs3)nn2CC1(C)C(=O)NC1CCCCCC1` (centres undefined), the activity change, negative = inhibition in test [1] was -1.76%; in test [2], 8.82%; in test [3], -1.79%; in test [4] it was 1.42%; in test [5], -4.12%.
In the same order, the values of `CC(=O)Nc1c2n(c3ccc(F)cc13)CC(C)(C(=O)NC1CCCC1)N(c1ccc(F)cc1)C2=O` (centres undefined) are 1.5%, 0%, 1.45%, 6.2% and -4.84%.
On the same counts, the results for `Cc1coc2c1C(=O)C(=O)c1c-2ccc2c(C)cccc12` are -23.8%, -6.1%, -1.48%, -21.8% and -13.4%.
For `CCCN1C(=O)c2c(C(=O)NCc3ccc(OC)cc3)ncn2CC1(C)C(=O)NCc1ccc(F)cc1` (centres undefined), the activity change, negative = inhibition was 2.96% in test [1]; 0% in test [2]; -0.492% in test [3]; 4.67% in test [4]; 6.97% in test [5].
On the same counts, the results for `O=S(=O)(NC[C@@H]1CCNC[C@H]1O)c1ccc(OC(F)(F)F)cc1` are -8.83%, -7.42%, -3.49%, -5.81% and -3.71%.
Turning to `Cn1cc(-c2cnn3c(N)c(Br)c(C4CCCNC4)nc23)cn1` (centres undefined), the activity change, negative = inhibition in test [1] was -10.1%; in test [3] it was -81.4%.
As for `COc1ccc(-c2cc3c(C)nc(N)nc3n(C3CCC(OCCO)CC3)c2=O)cn1` (centres undefined), the activity change, negative = inhibition in test [1] is -0.891%; in test [2] it was -2.44%; in test [3] it was 3.29%; in test [4], -13.5%; in test [5], 1.4%.
For the molecule `CCn1ccn2c(-c3ccccc3)nc(C)c2c1=O`, the activity change, negative = inhibition in test [1] was -3.03%; in test [2], -0.049%; in test [3], -3.25%; in test [4], -7.5%; in test [5] it was -1.19%.
In the same order, the values of `O=C1CC(c2ccccc2)N(C(=O)CNC(=O)c2n[nH]c3ccccc23)CCCCCCN1` (centres undefined) are -5.35%, -0.355%, 0.498%, -5.39% and -1.85%.
On the same counts, the results for `Cc1nc(CCNC(=O)[C@H]2CCC[C@H](O)C2)nc2c1CCC2` are -4.4%, -0.894%, -0.222%, -1.49% and -0.917%.
In the same order, the values of `CN(C)C(=O)N1CCCn2nc(CNC(=O)C(=O)c3ccco3)cc2C1` are -0.277%, -1.73%, 1.04%, -5.62% and -4.51%.
For the molecule `C=CCN1CCN(C(=O)[C@@]23CCCC[C@H]2N(CCC(C)C)C(=O)CC3)CC1`, the activity change, negative = inhibition in test [1] was -1.2%; in test [2], -0.692%; in test [3], 1.05%; in test [4], 1.42%; in test [5] it was 4.49%.
Regarding `COc1cc(Nc2nc3ccccc3nc2NS(=O)(=O)c2ccc(NC(=O)c3ccc(C)c(OC)c3)cc2)cc(OC)c1`, the activity change, negative = inhibition in test [1] was 3.77%; in test [2], -27.7%; in test [3] it was 11.1%; in test [4], -43.9%; in test [5], -14.5%.
`Cc1ccccc1-n1c(Cn2nc(-c3cccc(O)c3)c3c(N)ncnc32)nc2cccc(C)c2c1=O`: the activity change, negative = inhibition in test [1] was -11.6%; in test [2], -0.897%; in test [3], -0.389%; in test [4], -50.4%; in test [5], -1.75%.
As to `N=C(N)c1ccc2nc(-c3cc(CC(=O)NC(CC(=O)O)C(=O)O)cc(-c4cc(S(N)(=O)=O)ccc4O)c3O)[nH]c2c1` (centres undefined), the activity change, negative = inhibition was 0.757% in test [1]; 2.09% in test [2]; 10.9% in test [3]; -13.3% in test [4]; 3.47% in test [5].
Take `O=C(CCCc1ccccc1)N1CCCCCC1c1nc(C2CC2)no1` (centres undefined): the activity change, negative = inhibition in test [1] was -1.92%; in test [2] it was -4.08%; in test [3], 0.355%; in test [4], -2.08%; in test [5] it was -1.82%.
On the same counts, the results for `CN(CCN1C(=O)c2cc3occc3n2CC1(C)C(=O)NC1CCCCC1)C1CCCCC1` (centres undefined) are 5.87%, 0%, 4.53%, 7.12% and 6.21%.
In the same order, the values of `Cc1ccc(-c2noc([C@@H]3Cc4nc[nH]c4CN3Cc3cccs3)n2)cc1` are -11.3%, -8.87%, -20.3%, -42.6% and -2.52%.
In the same order, the values of `COc1ccccc1-c1c[nH]c2ncc(-c3cncc(C(=O)N(C)C)c3)cc12` are -21.3%, -4.79%, -29.1%, -38.7% and -15.2%.
Turning to `CC(C)c1cc(CN2CCC(N3CCC(C(=O)NCc4ccccn4)CC3)CC2)[nH]n1`, the activity change, negative = inhibition in test [1] is -3.2%; in test [2] it was -8.74%; in test [3], -8.51%; in test [4] it was -12.6%; in test [5], -4.34%.
In the same order, the values of `O=C(N[C@@H]1CN(Cc2c[nH]c3ccccc23)C[C@H]1CO)c1ccccc1` are -3.75%, -2.32%, -21.2%, -8% and 19.2%.
For the molecule `Cn1cncc1CNC(=O)c1nc(-c2cccc(N3CCOCC3)c2)cc2c1ccn2C`, the activity change, negative = inhibition in test [1] is -13.3%; in test [2], -6.63%; in test [3] it was -15.7%; in test [4], -8.48%; in test [5], -15.4%.
For the molecule `CC1(C)CC[C@]2(C(=O)O)CC[C@]3(C)C(=CCC4[C@@]5(C)C[C@@H](O)[C@H](O)C(C)(C)C5CC[C@]43C)C2C1` (some centres undefined), the activity change, negative = inhibition in test [1] was -5.96%; in test [3], 11%.

The record behind these values is PubChem BioAssay AID1745853 (National Center for Advancing Translational Sciences (NCATS), 2022).
